The source gives no read counts; variants with many changes may rest on few reads.

This note sets out measurements from the RNAGym collection of RNA variant scans (doi:10.7554/elife.90254).

The chains are these.
B1: LINE1-full (parent)
chain: UACGUAGGUGGUUUUCCCCUGAUAGUGCUAAGGGGGCCUGGAAGUUUGGACUGGGCAGAGCUCAACACAGCGUGGCAAAGUGGCUGUGGCUAGACUGCCUCUCUGGAUUCCUCGUCACUCAGCAGGGCAUCUCUGAGAGAAAUGCC

In the data set the parent is B1. The experiment in a line: self-cleavage, relative activity (ratio to wild type); higher = more cleavage; in vitro, sequencing; the parent is a self-cleaving ribozyme.
Turning to A117G G122A A140G, the self-cleavage stood at 1.82.
As for U46C A59G G74U U85A U108C U130A A142G, the figure is 0.17.
As for U13C A24C A121U, the figure is 1.57.
For A43G U104A A136G the value was 2.55; for U12C G93C G126A, 0.03.
Regarding U62A A67U U81A U85C U104C, the self-cleavage was 0.21.
For U73C A78G A141G the value was 0.47; for A57G A117U A141G, 0.56.
As for A57U A59G C90A U134C, the figure is 0.03.
As for C17A A42G U45A, the figure is 1.04; as for A43G A57G A59G, 0.11; as for U1G G53U A77G, 0.71.
As for G60A A67U A78G, the self-cleavage was determined as 0.05.
With A22G A43G A69G, the self-cleavage came to 0.51.
For U12C A59U A65G A124G A140G the value was 0; for U91C A129G U130A, 1.45.
For U9C A31U A43G the value was 0.85; for U14C U81A A140G, 1.07; for U14C C99U U134A, 0.41.
For U45C U132C A142G the value was 2.09; for C17U A77U U87A U104A A140U, 0.07; for A31U U47A A138U, 0.7.
As to U29C U62A A141G, the self-cleavage is 0.07.
For U9C U13A A136G the value was 1.53.
As for C76U A79G U112A, the figure is 1.84; as for A31U C63U A64G U134A, 0.11; as for U13G G55U U73G U134C, 0.23.
Take G40U U47C U115A: the self-cleavage is 2.27.
As for A30G A67U U112C, the self-cleavage was found to be 0.18.
As for U47C A59U U62G, the figure is 0.05.
U1C U87A U143C: the self-cleavage came to 0.
Take U5C A6U U119C U132A G137A: the self-cleavage turned out to be 2.04.
As for U45C A69G G137A, the figure is 1.56.
For A57C A78G G80A the value was 0.
For A121G A138G A140U the value was 2.51; for A22C U108C A124G, 2.51.
As for U13G C56G U96C A140G, the self-cleavage is 0.1.
For U39C C56U U73C the value was 0.04; for U23C U62C A77G A138G, 0; for A31U G72U U143C, 0.46.
Consider U9C U47C A107C, for which the self-cleavage is 0.
For U13C U100A U115C the value was 2.3.
For U52C U96C U143A the value was 0.2; for A2U U47C U104A, 0.56; for U13C U20C A138G, 0.53.
As for A69G U100C G144A, the figure is 0.98.
As to U45C U85A A94G A129G, the self-cleavage amounted to 0.
On to U12C A92G U112C, for which the self-cleavage was 0.73.
As for A64G U115C A142G, the self-cleavage was 0.27.
In the case of A67G C76A U100A, the self-cleavage was 0.22.
As for G34U C37U A42U, the figure is 0.7.
For G89A U130C A140G the value was 0.04.
For U9C U29C U143C the value was 1.13; for A31U U109A U119C, 1.5; for U5C U15C U96A, 0.11.
Regarding G44A A65G A69G, the self-cleavage came to 0.02.
As for A57U C110A U130A, the figure is 0.09.
For A30G U96A A107C U109C A129U A140G the value was 0.
For A79U U87C U104C the value was 0.16; for U15C A31U A129U A141U, 0.49; for U100A A107G A124U, 1.53.
Turning to U29C A31U U104A, the self-cleavage was 0.21.
As to C66U U87C A138G, the self-cleavage amounted to 0.01.
As for G7U U87C U132A, the self-cleavage stood at 0.
For U47A A77G U102C the value was 1.45; for U62C G114A A142G, 0.07.
As for A42G U45C A69G A77G, the figure is 0; as for U23C A69G A142G, 1.62.
Regarding C19A A24U U62C A94G U108C, the self-cleavage stood at 0.
As for U13A U119C A141G, the figure is 1.46; as for A64G U73A U102A, 0.22; as for G34A G48A A136U, 1.02.
As for U12C G53A A92U U119C, the figure is 0.74.
As for A57G U112C U119C, the figure is 0; as for U46C G60A A107U A141G, 0; as for G10A A50C U73A U96C, 0.11.
For the variant U13C G27A U115C, the self-cleavage came to 2.02.
As for A24U A59G A136U, the figure is 0.11; as for U1C A57U A129U, 0.11.
A59U U119C U132A A138G: the self-cleavage is 0.44.
For the variant A30G U104C A140G, the self-cleavage worked out at 2.8.
As for U26C A42G A140G, the figure is 1.41; as for U9A U15C A67G A117U, 0.46.
As for U20C A92U U100A A121U A129G, the figure is 0.36; as for U15C U23A G41A A92G, 0.
Turning to A22G U52A A124U A141G, the self-cleavage was determined as 1.58.
For A50G A94U U119C the value was 0.24; for U15C G75C A141C, 0.45.
For U52A U73C C123U the value was 2.16.
As for U96A U102C U134C A142C, the figure is 0; as for U73A G135A A136G, 1.85; as for A79U U96C G106C A141G, 0.1.
As to A69U C71U U85C, the self-cleavage was determined as 0.08.
As for U130C A138G A142C, the figure is 1.84; as for U46G U115C A129G, 2.04.
For A30G U52A A64U U73C the value was 0.69.
As for U26A U47A U104C A121G, the figure is 0.26; as for A78G G122U A124G C146U, 0.81; as for U5C A59G U85A A94G A121G, 0.
As for C38U A43G A138G A142G, the self-cleavage turned out to be 1.93.
For U91C A94U U115A U132C the value was 0.03; for U14C G72A A77G U100C, 2.95; for U20A A64U U109C, 0.13.
With U14C G33A A94C, the self-cleavage stood at 0.23.
As for C3U U96C A117U, the figure is 0.1; as for A50U U132C A138C, 1.31.
As for G58A U62A A64C G86A A142G, the figure is 0.01; as for U9C U13A U85C, 0.34; as for A78G A138G C145U C146U, 2.22.
For U39C A117U A121C A136G U143C the value was 1.79.
Turning to A6G U12C U87C A141G, the self-cleavage amounted to 0.3.
For the variant U9A U26C G32U U73C G93A, the self-cleavage is 0.17.
As for U39C U62C C99U, the figure is 0.02.
For U23G U52A U96G the value was 0; for U12C A94G A107G, 0.68.
As for A6G U100C U119C, the figure is 0.46; as for A22U G40A C111A, 0.61.
Take U1C U39A G58U: the self-cleavage stood at 0.18.
Consider U12C U15C A69U A77G U132C, for which the self-cleavage turned out to be 0.2.
Turning to U115C U130C A142G, the self-cleavage turned out to be 1.21.
Regarding U12A A42U G54C U109C, the self-cleavage stood at 0.33.
As for C3U A69G U119C, the figure is 0.46; as for A42G U62C C90G U132C U143C, 0.07.
With U14C U73A A140G, the self-cleavage came out at 1.82.
As for U15C A64C G72U A136G, the self-cleavage was 0.28.
As for A65G U132A A136G A141G, the figure is 0; as for U14G A50U C63U A79G U102G, 0.22.
Turning to U26C U47A A69U, the self-cleavage worked out at 0.03.
As for U20C U52C G53A G55A, the figure is 0.07; as for A94U U102C A141G A142G, 0.29; as for A22G A59G U91A A138G, 0.
As for G33U A64G A69G, the figure is 0.07; as for A77C A79G U96C U130C, 0.88; as for U15C U46C G97A A136U, 0.74.
As for U20C U39A U85C, the figure is 0.28; as for U47A A50G A79G U85C, 0.29; as for C37U U85C U102C U112C, 0.07.
With A57G A64U C84U G93U A94G U100C U102C G114A A140G, the self-cleavage is 0.
As for G36A A67U U109C, the figure is 0.07.
As for C56U A79U U102A U119C, the figure is 0.13; as for G4A U15C U29A A142G, 0.27.
As to A2U C56U U132A, the self-cleavage was 0.22.
As for G8A G32U A107G, the figure is 0.71; as for U62A A67G C84U A107G, 0.15; as for U12C C38A A117G, 0.55.
For A24U U26C G35A U47C A94G the value was 0.55; for U20G A22G A79G U130C, 0.97.
As for A2U A57G G72A, the figure is 0.69; as for C37A A42G U85C A141G, 0.36.
With U5C U100A A140G, the self-cleavage was determined as 0.83.
For the variant A94U A107G A136G, the self-cleavage was determined as 0.3.
As for A121U A136U A140G, the figure is 0.92; as for U20C A57U U108C, 0.18.
As for G32A U91C G127A A141U, the figure is 0.27; as for U13A G35A U109A, 0.39.
As for U12C U15A A141U A142U, the figure is 0.65.
Take C17U G60A C113A A142G: the self-cleavage stood at 0.04.
For A57G C84U U100A the value was 0.04; for A2U G41A U46C A79G U115C, 0.89.
For the variant U26C A42G C131A, the self-cleavage stood at 2.03.
As for U5A U23A C28A G48C A64U G75U C98G U115C A138G, the figure is 0.05.
For U14A A77G U119C the value was 2.66; for A30G U52C A67U U85A A124G, 0.
For C3U U91A U132C the value was 0.55.
With A2G U15C U46C C123A, the self-cleavage stood at 0.52.
Take U9A G75A U132C: the self-cleavage came out at 1.01.
With U9C A94U A107G, the self-cleavage was 0.11.
